The list shows a part of the results.

One test relates to HepG2. Kind of test: cytotoxicity call (relative viability < 0.9). As to conditions: 10 µM.
As for `NNC(=O)CCCCCCC(=O)NO`, the cytotoxicity call was “inactive”. The same measure, in the same setting: the entry for `CCOC(=O)/C(C)=N\O` is “inactive”; for `CO[C@H]1CN(C)C(=O)c2ccc(NC(=O)CC(F)(F)F)cc2OC[C@@H](C)N(S(=O)(=O)c2cn(C)cn2)C[C@@H]1C` it is “inactive”; for `C[C@@H]1CN([C@H](C)CO)C(=O)c2cccc(NC(=O)CCCCCC(=O)Nc3ccccc3N)c2O[C@H]1CN(C)C(=O)Nc1ccc(C(F)(F)F)cc1` it is “inactive”. The same measure, in the same setting: the entry for `C[C@@H]1CN([C@H](C)CO)C(=O)Cc2cc(NC(=O)Cn3cnnn3)ccc2O[C@@H]1CN(C)S(=O)(=O)c1ccc(Cl)cc1` is “inactive”; for `CC(C)NC(=O)Nc1ccc2c(c1)C(=O)N(C)[C@@H]1CC[C@H](CC(=O)NCc3ccc(F)cc3)O[C@H]1CO2` it is “inactive”. The same measure, in the same setting: the entry for `Cc1ccc(S(=O)(=O)Nc2ccc3c(c2)C(=O)N([C@@H](C)CO)C[C@@H](C)[C@@H](CN(C)C(=O)Cc2ccccc2)OCCCC[C@H](C)O3)cc1` is “inactive”; for `C[C@H]1CCCCO[C@@H](CN(C)S(=O)(=O)c2ccccc2)[C@@H](C)CN([C@@H](C)CO)C(=O)c2cc(NC(=O)c3ccccc3)ccc2O1` it is “inactive”. For `O=C(C[C@@H]1CC[C@H]2[C@@H](COC[C@H](O)CN2C(=O)Nc2cccc(Cl)c2)O1)NCCCN1CCOCC1`, the cytotoxicity call was “inactive”. Still for that read-out and setting: the entry for `CC(=O)N(C)C[C@@H]1Oc2ncc(C#CC(C)(C)O)cc2C(=O)N([C@H](C)CO)C[C@H]1C` is “inactive”.

As for `C[C@H](CO)N1C[C@H](C)[C@H](CN(C)C(=O)NC2CCCCC2)OCCCC[C@H](C)Oc2ccc(NC(=O)Cc3ccccc3)cc2C1=O`, the cytotoxicity call was “inactive”. Same read-out and setting: the entry for `C[C@H](CO)N1C[C@H](C)[C@@H](CN(C)Cc2ccccc2)Oc2c(NC(=O)c3ccc(-c4nccs4)cc3)cccc2C1=O` is “inactive”; for `C[C@H](CO)N1C[C@H](C)[C@@H](CN(C)C(=O)Nc2cccc3ccccc23)Oc2ccc(NC(=O)C3CCCCC3)cc2CC1=O` it is “inactive”. Regarding `C[C@H](CO)N1C[C@H](C)[C@H](CN(C)Cc2ccc(Cl)c(Cl)c2)Oc2c(NS(=O)(=O)c3ccc(F)cc3)cccc2C1=O`, the cytotoxicity call is “inactive”. Same read-out and setting: the entry for `C[C@H]1COC(=O)[C@@H](NC(=O)OCC2c3ccccc3-c3ccccc32)CC/C=C/C[C@H](CC(=O)N(CCOC(=O)NCCCCCC(=O)NO)Cc2ccccc2)C(=O)N1` is “inactive”; for `Cc1ccc(S(=O)(=O)Nc2ccc3c(c2)CC(=O)N([C@H](C)CO)C[C@@H](C)[C@@H](CN(C)S(=O)(=O)c2cccs2)O3)cc1` it is “inactive”; for `CN1C(=O)CC(C)(c2ccccc2)C1=O` (configuration not stated) it is “inactive”. On the same count and under the same terms, the entry for `O=C(O)c1cc(O)ccc1O` is “inactive”; for `COC(=O)C1=CO[C@@H](O[C@H]2O[C@@H](CO)[C@@H](O)[C@@H](O)[C@@H]2O)[C@@H]2C(CO)=C[C@H](O)[C@H]12` it is “inactive”. On the same count and under the same terms, the entry for `COCCN1C(=O)C2=C(C1=O)[C@H]1N(C)c3ccccc3[C@@]13C[C@@H](CO)N(C(C)=O)C3=N2` is “inactive”. Turning to `CC(C)NC(=O)NCC[C@H]1CC[C@H](NC(=O)CN(C)C)[C@@H](CO)O1`, the cytotoxicity call was “inactive”. Consider `C[C@H]1CN([C@@H](C)CO)C(=O)Cc2cc(NC(=O)CCC(F)(F)F)ccc2O[C@@H]1CN(C)Cc1ccc(Oc2ccccc2)cc1`, for which the cytotoxicity call was “inactive”. Same read-out and setting: the entry for `C[C@@H]1CN([C@@H](C)CO)C(=O)c2cc(NC(=O)CCC(F)(F)F)ccc2O[C@@H]1CN(C)C(=O)Nc1cccc2ccccc12` is “inactive”; for `O=C(C[C@@H]1C[C@@H]2c3cc(NS(=O)(=O)c4ccc(F)cc4)ccc3O[C@@H]2[C@H](CO)O1)NCc1cccnc1` it is “inactive”; for `C[C@H]1CN([C@@H](C)CO)S(=O)(=O)c2ccc(-c3cccc(C#N)c3)cc2O[C@@H]1CN(C)C(=O)c1ccncc1` it is “inactive”. On the same count and under the same terms, the entry for `C[C@@H]1CN([C@H](C)CO)C(=O)c2cc(NC(=O)Nc3ccc(C(F)(F)F)cc3)ccc2O[C@H]1CN(C)S(C)(=O)=O` is “inactive”.

With `COc1ccc(S(=O)(=O)N2C[C@H](O)COC[C@H]3O[C@H](CC(=O)NCCCN4CCOCC4)CC[C@@H]32)cc1`, the cytotoxicity call was “inactive”.

Another test has as its system S. aureus RN4220. Nature of the test: growth inhibition call (relative growth <= 0.2). Conditions: 50 µM.
Regarding `CC(C)NC(=O)N[C@@H]1C=C[C@H](CC(=O)NCCCN(C)C)O[C@@H]1CO`, the growth inhibition call is “inactive”. Still for that read-out and setting: the entry for `C[C@H](O)C#Cc1ccc2c(c1)O[C@H](CN(C)C)[C@H](C)CN([C@@H](C)CO)S2(=O)=O` is “inactive”. Still for that read-out and setting: the entry for `NC(=O)c1ccc(CN2CCOCC2)cc1` is “inactive”; for `O=C(O)C[C@@H](C(=O)O)[C@H](O)c1ccccc1` it is “inactive”; for `Cc1noc(C)c1NC(=O)N[C@H]1CC[C@H](CC(=O)N2CCN(C)CC2)O[C@H]1CO` it is “inactive”. On the same count and under the same terms, the entry for `C[C@@H]1CN([C@H](C)CO)C(=O)c2c(c3ccccc3n2C)-c2ccccc2CO[C@H]1CN(C)Cc1ccccc1` is “inactive”; for `COCC(=O)N1[C@H](C(=O)N2CCN(C)CC2)[C@@H](CO)[C@@H]2Cn3c(ccc(C4=CCCCC4)c3=O)[C@@H]21` it is “inactive”. As for `Cc1noc(C)c1NC(=O)Nc1ccc2c(c1)C(=O)N([C@H](C)CO)C[C@H](C)[C@H](CN(C)S(=O)(=O)c1cn(C)cn1)O2`, the growth inhibition call is “inactive”. `CO[C@H]1CN(C)C(=O)c2cc(NC(=O)c3ccccc3)ccc2OC[C@H](C)N(C(=O)CN(C)C)C[C@@H]1C`: the growth inhibition call is “inactive”. On to `C[C@@H]1CN([C@@H](C)CO)S(=O)(=O)c2ccc(-c3ccncc3)cc2O[C@H]1CN(C)Cc1ccc(Oc2ccccc2)cc1`, for which the growth inhibition call was “inactive”. Still for that read-out and setting: the entry for `O=C(O)COc1nn(Cc2ccccc2)c2ccccc12` is “inactive”; for `CC(C)NC(=O)Nc1ccc2c(c1)C(=O)N([C@H](C)CO)C[C@@H](C)[C@H](CN(C)S(C)(=O)=O)OCCCC[C@H](C)O2` it is “inactive”.

Regarding `COc1cccc(NC(=O)C[C@H]2CC[C@@H]3[C@@H](COc4ccc(NC(=O)C5CCOCC5)cc4C(=O)N3C)O2)c1`, the growth inhibition call was “inactive”.

Consider `NNC(=O)CCCCCCC(=O)NO`, for which the growth inhibition call is “inactive”. Same read-out and setting: the entry for `CCOC(=O)/C(C)=N\O` is “inactive”; for `CO[C@H]1CN(C)C(=O)c2ccc(NC(=O)CC(F)(F)F)cc2OC[C@@H](C)N(S(=O)(=O)c2cn(C)cn2)C[C@@H]1C` it is “inactive”. Still for that read-out and setting: the entry for `C[C@@H]1CN([C@H](C)CO)C(=O)c2cccc(NC(=O)CCCCCC(=O)Nc3ccccc3N)c2O[C@H]1CN(C)C(=O)Nc1ccc(C(F)(F)F)cc1` is “inactive”; for `C[C@@H]1CN([C@H](C)CO)C(=O)Cc2cc(NC(=O)Cn3cnnn3)ccc2O[C@@H]1CN(C)S(=O)(=O)c1ccc(Cl)cc1` it is “inactive”; for `CC(C)NC(=O)Nc1ccc2c(c1)C(=O)N(C)[C@@H]1CC[C@H](CC(=O)NCc3ccc(F)cc3)O[C@H]1CO2` it is “inactive”.

With `Cc1ccc(S(=O)(=O)Nc2ccc3c(c2)C(=O)N([C@@H](C)CO)C[C@@H](C)[C@@H](CN(C)C(=O)Cc2ccccc2)OCCCC[C@H](C)O3)cc1`, the growth inhibition call is “inactive”. On to `C[C@H]1CCCCO[C@@H](CN(C)S(=O)(=O)c2ccccc2)[C@@H](C)CN([C@@H](C)CO)C(=O)c2cc(NC(=O)c3ccccc3)ccc2O1`, for which the growth inhibition call was “inactive”.

For the compound `O=C(C[C@@H]1CC[C@H]2[C@@H](COC[C@H](O)CN2C(=O)Nc2cccc(Cl)c2)O1)NCCCN1CCOCC1`, the growth inhibition call was “active”.

Take `CC(=O)N(C)C[C@@H]1Oc2ncc(C#CC(C)(C)O)cc2C(=O)N([C@H](C)CO)C[C@H]1C`: the growth inhibition call is “inactive”. Still for that read-out and setting: the entry for `C[C@H](CO)N1C[C@H](C)[C@H](CN(C)C(=O)NC2CCCCC2)OCCCC[C@H](C)Oc2ccc(NC(=O)Cc3ccccc3)cc2C1=O` is “inactive”; for `C[C@H](CO)N1C[C@H](C)[C@@H](CN(C)Cc2ccccc2)Oc2c(NC(=O)c3ccc(-c4nccs4)cc3)cccc2C1=O` it is “inactive”; for `C[C@H](CO)N1C[C@H](C)[C@@H](CN(C)C(=O)Nc2cccc3ccccc23)Oc2ccc(NC(=O)C3CCCCC3)cc2CC1=O` it is “inactive”.

For the compound `C[C@H](CO)N1C[C@H](C)[C@H](CN(C)Cc2ccc(Cl)c(Cl)c2)Oc2c(NS(=O)(=O)c3ccc(F)cc3)cccc2C1=O`, the growth inhibition call was “inactive”. On the same count and under the same terms, the entry for `C[C@H]1COC(=O)[C@@H](NC(=O)OCC2c3ccccc3-c3ccccc32)CC/C=C/C[C@H](CC(=O)N(CCOC(=O)NCCCCCC(=O)NO)Cc2ccccc2)C(=O)N1` is “inactive”; for `Cc1ccc(S(=O)(=O)Nc2ccc3c(c2)CC(=O)N([C@H](C)CO)C[C@@H](C)[C@@H](CN(C)S(=O)(=O)c2cccs2)O3)cc1` it is “inactive”; for `CN1C(=O)CC(C)(c2ccccc2)C1=O` (configuration not stated) it is “inactive”. On the same count and under the same terms, the entry for `O=C(O)c1cc(O)ccc1O` is “inactive”; for `COC(=O)C1=CO[C@@H](O[C@H]2O[C@@H](CO)[C@@H](O)[C@@H](O)[C@@H]2O)[C@@H]2C(CO)=C[C@H](O)[C@H]12` it is “inactive”.

As for `COCCN1C(=O)C2=C(C1=O)[C@H]1N(C)c3ccccc3[C@@]13C[C@@H](CO)N(C(C)=O)C3=N2`, the growth inhibition call was “inactive”. Same read-out and setting: the entry for `CC(C)NC(=O)NCC[C@H]1CC[C@H](NC(=O)CN(C)C)[C@@H](CO)O1` is “inactive”; for `C[C@H]1CN([C@@H](C)CO)C(=O)Cc2cc(NC(=O)CCC(F)(F)F)ccc2O[C@@H]1CN(C)Cc1ccc(Oc2ccccc2)cc1` it is “inactive”; for `C[C@@H]1CN([C@@H](C)CO)C(=O)c2cc(NC(=O)CCC(F)(F)F)ccc2O[C@@H]1CN(C)C(=O)Nc1cccc2ccccc12` it is “inactive”. Regarding `O=C(C[C@@H]1C[C@@H]2c3cc(NS(=O)(=O)c4ccc(F)cc4)ccc3O[C@@H]2[C@H](CO)O1)NCc1cccnc1`, the growth inhibition call is “inactive”. On the same count and under the same terms, the entry for `C[C@H]1CN([C@@H](C)CO)S(=O)(=O)c2ccc(-c3cccc(C#N)c3)cc2O[C@@H]1CN(C)C(=O)c1ccncc1` is “inactive”; for `C[C@@H]1CN([C@H](C)CO)C(=O)c2cc(NC(=O)Nc3ccc(C(F)(F)F)cc3)ccc2O[C@H]1CN(C)S(C)(=O)=O` it is “inactive”; for `COc1ccc(S(=O)(=O)N2C[C@H](O)COC[C@H]3O[C@H](CC(=O)NCCCN4CCOCC4)CC[C@@H]32)cc1` it is “inactive”.

These data come from the antibiotic and cytotoxicity screens of Wong et al. (2023).
